Experimental data published in the supplement of paper PMC5998384.

Assays:
HeLa Kyoto [1] = assay: solubility change mitosis vs G1/S (difference of NP-40 vs SDS log2 ratios) (log2 ratio difference); higher = more soluble in mitosis
HeLa Kyoto [2] = assay: melting temperature (median over replicates), in situ; higher = more thermally stable
HeLa Kyoto [3] = assay: solubility in G1/S (NP-40 vs SDS abundance) (log2 ratio); higher = more soluble; settings: cell cycle stage: G1/S
HeLa Kyoto [4] = assay: thermal stability score vs G1/S (z-score of summed log2 fold changes over temperatures); higher = more thermally stable than in G1/S
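Wherever melting temperature (median over replicates), in situ is given: HeLa Kyoto cells synchronized by double thymidine or nocodazole block, proteins quantified by TMT10plex mass spectrometry, three independent biological replicates.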
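Wherever solubility change mitosis vs G1/S (difference of NP-40 vs SDS log2 ratios) is given: synchronized HeLa Kyoto cells (double thymidine block for G1/S, nocodazole release for mitosis), protein amounts in NP-40 versus SDS lysates quantified by mass spectrometry, three biological replicates.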
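Wherever solubility in G1/S (NP-40 vs SDS abundance) is given: HeLa Kyoto cells arrested at G1/S by double thymidine block, proteins quantified by TMT10plex mass spectrometry in mild NP-40 versus SDS extracts, three biological replicates.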
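Wherever thermal stability score vs G1/S (z-score of summed log2 fold changes over temperatures) is given: synchronized HeLa Kyoto cells, proteins quantified by TMT10plex mass spectrometry, three biological replicates, mitosis taken 0.5 h after nocodazole release, G1/S directly after double thymidine block.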

| Substance | solubility change mitosis (log2) (HeLa Kyoto [1]) | melting temperature (HeLa Kyoto [2]; cell cycle stage: G1/S) [°C] | melting temperature (HeLa Kyoto [2]; cell cycle stage: mitosis) [°C] | solubility in G1/S (log2) (HeLa Kyoto [3]) | thermal stability score (HeLa Kyoto [4]; cell cycle stage: early G1 (4.5 h after nocodazole release)) | thermal stability score (HeLa Kyoto [4]; cell cycle stage: mitosis) |
| --- | --- | --- | --- | --- | --- | --- |
| GOLGA7 (sequence left out) | 0.00572 | 55.9 | 56.1 | -0.29 | 0.542 | 0.782 |
| PEA15 (sequence left out) | 0.0788 | 51.8 | 51.1 | -0.0118 |  |  |
